The text below walks through data of article PMC4242493.

This is one part of the list. The list includes weakly bound sequences.

In this test the target is MaxL homodimer (UniProt P61244). As to the kind of experiment: universal protein-binding microarray (PBM). Conditions: PBS-based mixture, 10 nM His-tagged protein dimer, 2% milk, 200 ng/uL BSA, 50 ng/uL salmon testes DNA, 0.02% TX-100; detection with Alexa 488 anti-His …; high values mean tight binding; most listed sequences are background and not binding sites; double strand, one strand shown.
UniProt P61244, sequence (P61244 whole entry): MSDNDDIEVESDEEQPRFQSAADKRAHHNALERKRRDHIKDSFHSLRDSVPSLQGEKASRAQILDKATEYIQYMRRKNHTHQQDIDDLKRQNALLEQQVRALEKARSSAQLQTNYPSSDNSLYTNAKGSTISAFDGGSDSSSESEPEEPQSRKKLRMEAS
As for GCTAAATA, the binding signal (normalized occupancy) amounted to 0.079. Next, CTAACAGC: 0.076; AACATCGT: 0.0844; AGATAATC: 0.0755.

For the sequence CGGAACAG, the binding signal (normalized occupancy) worked out at 0.0673. For ATGTGCTA, the binding signal (normalized occupancy) was determined as 0.0849. Next, GTTTCACA: 0.0775. Regarding CATCTACA, the binding signal (normalized occupancy) stood at 0.0833. CCAGCTAC: the binding signal (normalized occupancy) is 0.0747. In the case of CGGCTACA, the binding signal (normalized occupancy) is 0.0683. Next, TAAAGCGA: 0.0693. On to ACAACAAG, for which the binding signal (normalized occupancy) is 0.081.

Take CTCTCAGA: the binding signal (normalized occupancy) was 0.0746.

As to CGCATGCC, the binding signal (normalized occupancy) was found to be 0.116.

Take GTTCGTTA: the binding signal (normalized occupancy) came to 0.0705.

With AGAGAACA, the binding signal (normalized occupancy) amounted to 0.0716. As for ACTGACGA, the binding signal (normalized occupancy) was determined as 0.0719. For CGTAGGAA the value was 0.0856; for CGTGAGCA, 0.0782; for CATTACGC, 0.0764.

As to GACTCATC, the binding signal (normalized occupancy) is 0.0776. As to ACCCTATC, the binding signal (normalized occupancy) was determined as 0.0783. In the case of ACGATCGT, the binding signal (normalized occupancy) worked out at 0.0678. Consider GTGTCCGA, for which the binding signal (normalized occupancy) came to 0.0717. Next, ATCCGGTG: 0.0777. For the sequence AAGGACTG, the binding signal (normalized occupancy) was found to be 0.066. For AACCGGAT, the binding signal (normalized occupancy) amounted to 0.0726.

Take GTGGACGA: the binding signal (normalized occupancy) was 0.0753. Turning to AAGTAAGT, the binding signal (normalized occupancy) came to 0.0728. Take AGGAATAG: the binding signal (normalized occupancy) was 0.0765. As to CGAAACCG, the binding signal (normalized occupancy) came out at 0.0686. As to GATGGCTA, the binding signal (normalized occupancy) came out at 0.073. Next, GCCCCTCA: 0.0781; CTAGGGGA: 0.0747. For ATCCCGAC the value was 0.0749. As for AAGGGGTC, the binding signal (normalized occupancy) turned out to be 0.0773. For the sequence ATGAAGAG, the binding signal (normalized occupancy) amounted to 0.0796. As to GGCGATAC, the binding signal (normalized occupancy) was 0.0716. ACCGTAAG: the binding signal (normalized occupancy) was 0.07. Regarding ACATCCCT, the binding signal (normalized occupancy) was 0.0769.

For the sequence CATAGTAG, the binding signal (normalized occupancy) was determined as 0.081. Next, TGAATGAA: 0.0801; GGACTTCA: 0.0774; CAATGGTC: 0.0779. In the case of AATCAGGC, the binding signal (normalized occupancy) was determined as 0.0752. Consider GTGACTTA, for which the binding signal (normalized occupancy) came to 0.0816. For CAATAAAC the value was 0.0734; for GCATGCCA, 0.108; for CAGTATCA, 0.0858. For the sequence CGTGTCGC, the binding signal (normalized occupancy) came to 0.083. For the sequence CTCTACGA, the binding signal (normalized occupancy) stood at 0.0744. Consider AAACCCGC, for which the binding signal (normalized occupancy) was found to be 0.0756. Next, AAACGACG: 0.0765. In the case of ATACTTGA, the binding signal (normalized occupancy) is 0.0771.

For ATGTTGGC, the binding signal (normalized occupancy) is 0.0836. As to ACGTGAGA, the binding signal (normalized occupancy) was found to be 0.0981. In the case of TATACTGA, the binding signal (normalized occupancy) is 0.0751. ATTGGCAC: the binding signal (normalized occupancy) was found to be 0.0807. As for AGAGCGCC, the binding signal (normalized occupancy) is 0.0677.

As to TGAGTCCA, the binding signal (normalized occupancy) was 0.0763. As for GTTGAAAC, the binding signal (normalized occupancy) turned out to be 0.0696. In the case of GCGCTATA, the binding signal (normalized occupancy) stood at 0.0753. In the case of ATGGGGCC, the binding signal (normalized occupancy) came to 0.084. Regarding AGTTGACA, the binding signal (normalized occupancy) came to 0.0728. With CGGCCCTC, the binding signal (normalized occupancy) turned out to be 0.0703. Next, AGCTCTGG: 0.0678. In the case of AACGATGC, the binding signal (normalized occupancy) worked out at 0.0755.

As to GATTCGGC, the binding signal (normalized occupancy) is 0.0703. For GACGACAA the value was 0.0733. Next, CAGGGACA: 0.0703; CGAACGCC: 0.0735; AAGGTCGG: 0.07. Next, CGCTCGAC: 0.0728.

Take CGGCAAGA: the binding signal (normalized occupancy) was determined as 0.0698.

As to AGGCCCCC, the binding signal (normalized occupancy) amounted to 0.0661.

As to CCAGGATA, the binding signal (normalized occupancy) was 0.0788. Regarding CAATGTCA, the binding signal (normalized occupancy) amounted to 0.0758. For CTCAAAGA the value was 0.074; for CTGATTAC, 0.08; for GCGCGCGC, 0.0821. As to AAAGGGGC, the binding signal (normalized occupancy) amounted to 0.0711. For TGGATGAA the value was 0.0769. For the sequence GCGTCTGA, the binding signal (normalized occupancy) is 0.0708.

For GCTCTGAC, the binding signal (normalized occupancy) amounted to 0.0706.

Take ACATCTGG: the binding signal (normalized occupancy) turned out to be 0.0804. In the case of CGTTGGTA, the binding signal (normalized occupancy) stood at 0.0734. Consider CTTCGGCC, for which the binding signal (normalized occupancy) amounted to 0.0673.

For AACTCATA, the binding signal (normalized occupancy) was 0.0781. With ACCATAGT, the binding signal (normalized occupancy) was 0.0797. In the case of ATATGTCG, the binding signal (normalized occupancy) is 0.0832.

On to CCACAATC, for which the binding signal (normalized occupancy) was found to be 0.0772. Take CAGTCGCC: the binding signal (normalized occupancy) stood at 0.0682. For the sequence AAAGGTAG, the binding signal (normalized occupancy) is 0.0752.

Take ATCTTACC: the binding signal (normalized occupancy) came out at 0.0753.

In the case of GTGCATGA, the binding signal (normalized occupancy) was 0.0961. As for ATTATAGG, the binding signal (normalized occupancy) was found to be 0.077. As for GACTTCAC, the binding signal (normalized occupancy) stood at 0.0759. Regarding CCTTGTTC, the binding signal (normalized occupancy) turned out to be 0.0732.

For CAGACCGG, the binding signal (normalized occupancy) turned out to be 0.0667. On to ACGGCTCC, for which the binding signal (normalized occupancy) was found to be 0.0698.

For the sequence CCGCCATA, the binding signal (normalized occupancy) is 0.0852. On to GCAAAAAA, for which the binding signal (normalized occupancy) amounted to 0.0748. For CCTACTTA, the binding signal (normalized occupancy) was 0.0756.

As for AAACCTTT, the binding signal (normalized occupancy) was determined as 0.0724. Next, CGATACTC: 0.0759; CGAGGTGA: 0.0813. As for ACTCCGCC, the binding signal (normalized occupancy) worked out at 0.0702. Turning to GGTCATGA, the binding signal (normalized occupancy) turned out to be 0.0834. Take GGTCCGAA: the binding signal (normalized occupancy) came to 0.0746. Next, AATGTGCA: 0.0888; CAGTTGCA: 0.0721; ATGAAAGC: 0.0784. Take GATCATTA: the binding signal (normalized occupancy) amounted to 0.0838.

Take CCTACGAC: the binding signal (normalized occupancy) stood at 0.072. For GCCGTGAC, the binding signal (normalized occupancy) came out at 0.0747. As for TCTTAGCA, the binding signal (normalized occupancy) stood at 0.0782.

Consider ATGCTGAG, for which the binding signal (normalized occupancy) stood at 0.0819. For the sequence TATGACCA, the binding signal (normalized occupancy) came to 0.0767. For ATGCATAC the value was 0.0887. For GAATGTAC the value was 0.0769; for CGATTGGC, 0.0736. Next, GGACATTA: 0.085; GTCAGATA: 0.0773; GCCATAAA: 0.0813. Regarding ACTAAGAT, the binding signal (normalized occupancy) was 0.0689. As for CGTCCTCA, the binding signal (normalized occupancy) came out at 0.0791. With GGCTAGAA, the binding signal (normalized occupancy) amounted to 0.0727. With AACTAAAG, the binding signal (normalized occupancy) was 0.0697. Regarding ATAGCGCC, the binding signal (normalized occupancy) came to 0.0747.

As for ATTATACA, the binding signal (normalized occupancy) was 0.0831.

On to TGACAGCA, for which the binding signal (normalized occupancy) worked out at 0.0803. For AACGTGGA the value was 0.115. Take GAGACGAA: the binding signal (normalized occupancy) is 0.0673.

As to GCGCGAAC, the binding signal (normalized occupancy) was found to be 0.0712.

Turning to CAGAGGAA, the binding signal (normalized occupancy) worked out at 0.0684.

Consider ATTGACAG, for which the binding signal (normalized occupancy) was determined as 0.0739. As for TAAAGTCA, the binding signal (normalized occupancy) amounted to 0.0763. As to GGATGAAA, the binding signal (normalized occupancy) turned out to be 0.0731.

For the sequence CAATCTCG, the binding signal (normalized occupancy) worked out at 0.0753. Turning to CCCAGCGG, the binding signal (normalized occupancy) is 0.068. As to GTCGAAGA, the binding signal (normalized occupancy) was found to be 0.0714. On to CAGGGAAG, for which the binding signal (normalized occupancy) is 0.0792. Take ATTTGAAG: the binding signal (normalized occupancy) was found to be 0.0761. With CTACTCAG, the binding signal (normalized occupancy) stood at 0.0693. For the sequence CCACTCCG, the binding signal (normalized occupancy) was 0.0733.

Regarding CTAGTTAA, the binding signal (normalized occupancy) came to 0.0755. Next, ACCCTTAG: 0.0693; AGAGACCG: 0.072. In the case of GCGGAAGA, the binding signal (normalized occupancy) was found to be 0.0683. Consider ACCACGAT, for which the binding signal (normalized occupancy) was 0.0936.

Take AGTGTCAC: the binding signal (normalized occupancy) worked out at 0.0806. AACACACT: the binding signal (normalized occupancy) was 0.0856. For GGATCTAC the value was 0.0757; for ATAGTTCA, 0.073. Regarding GCGCTCAA, the binding signal (normalized occupancy) worked out at 0.0703. Turning to AGATGACC, the binding signal (normalized occupancy) was 0.0777. Next, AAAGGTTG: 0.074; GACAATGC: 0.0818; ATGGTGTG: 0.0899. As for ACTATCAG, the binding signal (normalized occupancy) was 0.0778. Consider AAGTCGAC, for which the binding signal (normalized occupancy) came out at 0.0703. Consider CCCCTTCA, for which the binding signal (normalized occupancy) was determined as 0.0836.

Take GGTGCAGA: the binding signal (normalized occupancy) worked out at 0.0738. Consider ACATATGG, for which the binding signal (normalized occupancy) stood at 0.0977. On to CGCTACCA, for which the binding signal (normalized occupancy) came to 0.0744. For ATGATTTC the value was 0.0798. Take AAGATAAG: the binding signal (normalized occupancy) was 0.0782. As to AAAATCCG, the binding signal (normalized occupancy) came out at 0.0752. For the sequence GATAGAAC, the binding signal (normalized occupancy) worked out at 0.0781. Regarding CTACAGCA, the binding signal (normalized occupancy) is 0.0757. Regarding GCGTATAC, the binding signal (normalized occupancy) is 0.0802.

On to ACGAGCAT, for which the binding signal (normalized occupancy) was found to be 0.0893.
